The inconclusive results got no clear call from the source; some entries with a clear call stand among them for comparison. The source made the active and inactive calls.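 The calls were made as follows: active = thallium flux rate significantly above the same plate's solvent-only control wells, beyond their mean plus 3 SD; inconclusive = the two replicate wells gave conflicting results; inactive = the rest.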
Experiment: compound effects on native HEK Tl+ uptake – HEK cells, counterscreen 1, counter-screen for KCC2 modulator project, confirmation (AID 1716)
Details: HEK293 parental cells, thallium flux FluoZin2, ouabain; at 10 µM; baseline-ratio fluorescence slope, 10–20 s after thallium

Compound	thallium flux rate (normalised fluorescence)
Cc1ccc(CN(C)C(=O)c2cc(COc3ccc(F)cc3Cl)on2)o1	inactive: 0.00721
COc1ccc(CN(C(=O)c2ccc(-c3ccccc3)[nH]2)C(C(=O)NC(C)(C)C)c2ccncc2)cc1 (stereo not drawn)	inactive: 0.00728
CCOc1cc(-c2noc(CCCC(N)=O)n2)cc(Br)c1OC	inactive: 0.00741
O=C(Cn1nc2ccccc2n1)N/N=C/c1cc(Cl)cc([N+](=O)[O-])c1O	inactive: 0.00714
CC/C(Cc1ccccc1)=N\NC(=O)c1cc([N+](=O)[O-])cc([N+](=O)[O-])c1	active: 0.033
Cc1ccc(S(=O)(=O)N(C)c2ccc(C(=O)N3CCc4ccccc4C3)cc2)cc1	inconclusive: 0.00635
Cc1ccc(-c2csc3ncn(CC(=O)N4CCOCC4)c(=O)c23)cc1C	inactive: 0.00477
CCc1cccc(CC)c1NC(=S)NCCc1c(C)[nH]c2ccccc12	inconclusive: 0.00611
O=C(O)c1cc([N+](=O)[O-])ccc1N1CCC(Cc2ccccc2)CC1	inactive: 0.00791
CSCCC(NC(=O)c1ccc([N+](=O)[O-])cc1Cl)C(=O)OCC(=O)NCCCc1ccccc1 (stereo not drawn)	inactive: 0.00713
O=[N+]([O-])c1cc(Br)c(O)c(/C=N/Nc2nnnn2-c2cccc3ccccc23)c1	inconclusive: 0.00662
O=C(NC(=S)Nc1ccc(CN2CCOCC2)cc1)c1ccc(-c2ccc(Br)cc2)o1	active: 0.0175
CC(C)CC(c1nnnn1Cc1cccs1)N1CCN(c2nc3ccccc3s2)CC1 (stereo not drawn)	inactive: 0.00756

From PubChem BioAssay
